# Measured values from PubChem BioAssay AID463173 (ICCB-Longwood Screening Facility, Harvard Medical School, 2010).
# Among all 52,000 compounds or so, about 4,300 (8.3%) were called active. Rule as the data show it: active = survival mostly below about 52% (no sharp cut-off); inactive = mostly above about 56%. The list shows a part of the results.
# Tested on: DeltatarO mutant
# Assay: S. aureus survival, RN4220 and DeltatarO strains – OD600, teichoic acid synthesis inhibitors, primary screen (AID 463173)
# Conditions: S. aureus RN4220 wild type/DeltatarO growth, OD600, 18 h, active compounds read low, screened at 18.75 µg/mL (by protocol)
row,Structure (SMILES),survival
1,CCOC(=O)C1CCN(C(=O)CSc2c3c(nc4ccc(Cl)cc24)CCCC3)CC1,active: 39%
2,CC(=O)Nc1ccc(C(=O)CSc2nnc3cc(C)c4ccccc4n23)cc1,inactive: 82%
3,Cc1ccc(NC(=O)c2sc3nc(-c4ccc(F)cc4)cn3c2C)c(C)c1,inactive: 81%
4,COc1ccc(CCC(=O)NC2CC(=O)N(c3ccc(C)c(C)c3)C2)cc1 (stereo unspecified),inactive: 93%
5,Cc1ccc(CNC(=O)c2ccc(-c3nc(CN4CCc5ccccc54)c(C)o3)cc2)cc1,inactive: 84%
6,COc1ccc(-c2cc(C(=O)NCC(=O)O)c(C)o2)cc1OC,inactive: 86%
7,O=C(NCc1ccc(Cl)cc1)C(=O)NCC(c1ccco1)S(=O)(=O)c1cccs1 (stereo unspecified),inactive: 95%
8,O=c1c2ccccc2n2c(-c3ccc(F)c(F)c3)nnc2n1CCc1ccccc1,inactive: 91%
9,Cc1cc(C)c(NC(=O)CSc2nnc3[nH]c(=O)cc(C)n23)c(C)c1,inactive: 93%
10,CCNc1nc(NC(C)C)nc(NC(N)NOC)n1 (stereo unspecified),inactive: 101%
11,CCC(=O)Nc1ccc2nc(SCC(=O)N3CCc4ccccc43)sc2c1,inactive: 73%
12,CCOC(=O)c1ccccc1NC1(c2ccc(OC)cc2)C(=O)c2ccccc2C1=O,inactive: 74%
13,CCOC(=O)c1c(S(=O)(=O)N2CCCC(C(=O)Nc3ccc(C)cc3C)C2)c(C)n(CC)c1C (stereo unspecified),inactive: 94%
14,COC(=O)c1ccc(C2c3c(oc4cc(C)c(C)cc4c3=O)C(=O)N2c2ccccn2)cc1 (stereo unspecified),inactive: 81%
15,C/C(=N\OCCN1CCCCC1)C1COc2ccccc2O1 (stereo unspecified),inactive: 97%
16,COc1ccc(C2NC(=O)NC(C)=C2C(=O)Nc2cc(C)cc(C)c2)c(OC)c1 (stereo unspecified),inactive: 46%
17,Cc1ccccc1CNC(=O)CCCn1nc(C)c2sc3ccccc3c2c1=O,inactive: 83%
18,CCc1c(C)nc2nncn2c1Nc1ccc(C)c(F)c1,inactive: 73%
19,CC(=O)Nc1ccc(Nc2cc(C)nc3ccccc23)cc1,inactive: 120%
20,CCCS(=O)(=O)NCCc1csc2nc(-c3ccc(OC)cc3)nn12,inactive: 67%
21,CN(Cc1ccccc1)c1ncnc2c1nc1n2CCCC1,inactive: 65%
22,O=C(Cn1nnc2sc3c(c2c1=O)CCCC3)Nc1ccc(F)c(Cl)c1,active: 36%
23,COc1cccc(NC(CNS(=O)(=O)c2ccc(C)cc2)c2ccccc2)c1 (stereo unspecified),inactive: 70%

row,Structure (SMILES),survival
1,CCN1C(=O)c2ccccc2Sc2ccc(NC(=O)c3ccc(C)c(F)c3)cc21,inactive: 77%
2,Cc1ccc2c(CC(=O)Nc3cc(C(F)(F)F)ccc3Cl)coc2c1C,inactive: 91%
3,CCC12CN3CC(CC)(CN(C1)C3c1ccc(OCc3ccccc3)cc1)C2=O (stereo unspecified),inactive: 92%
4,Cc1ccc2oc(=O)n(CCNC(=O)Nc3ccccc3Cl)c2c1,inactive: 72%
5,COc1ccc(C2CC(=O)Nc3c2c(=O)nc2c(C)cccn32)cc1 (stereo unspecified),inactive: 67%
6,COc1ccc2oc(=O)c(C(=O)N3CCC(C(N)=O)CC3)cc2c1,inactive: 79%
7,CCOC(=O)c1c(C)[nH]c(C)c1S(=O)(=O)N1CCC(C(=O)Nc2ccccn2)CC1,inactive: 90%
8,CCCCOc1cccc(C(=O)Nc2cccc3ccc(C)nc23)c1,inactive: 75%
9,COc1cccc(C(=O)Nc2nnc(S(=O)(=O)N3CCOCC3)s2)c1,inactive: 69%
10,COc1cc(OC)cc(C(=O)Nc2ccc3nc(N4CCC(C)CC4)cc(C)c3c2)c1,inactive: 51%
11,Cc1ccc(CS(=O)(=O)Cc2ccc(C(=O)NCCc3ccc(Cl)cc3)o2)cc1,inactive: 84%
12,Cc1cccc(NC(=O)CSc2nc3c(oc4ccccc43)c(=O)n2C(C)C)c1,inactive: 63%
13,COc1ccc(N2CCN(C(c3ccccc3)c3nnc(-c4ccccc4Cl)o3)CC2)cc1 (stereo unspecified),inactive: 49%
14,COc1cccc(CNC(=O)Cn2ncc3c4ccccc4n(C)c3c2=O)c1,inactive: 74%
15,COCCNC(=O)CCCn1c(SCC(=O)Nc2cccc(C)c2)nc2c(sc3ccccc32)c1=O,inactive: 90%
16,CC1=C(C(=O)NCCc2ccc(Cl)cc2)C2(CCCCC2)OC1=O,inactive: 80%
17,O=C(CN1CCOCC1)Nc1c(-c2ccccc2)c2cc(Br)ccc2[nH]c1=O,inactive: 103%
18,COc1ccc(C(=O)c2oc3ccccc3c2NC(=O)COc2c(C)cc(C)cc2C)cc1,inactive: 79%
19,O=c1oc2ccc(Br)cc2cc1-c1nc(-c2ccccc2)no1,inactive: 76%
20,O=C(Oc1ccc2ccccc2c1)N1CCOCC1,inactive: 92%
21,CCC(C)NC(=O)C1CCC(CNS(=O)(=O)c2cccc3nsnc23)CC1 (stereo unspecified),inactive: 93%
22,COc1ccc(Br)cc1CN1CCN(C(=O)c2cccc(OC)c2OC)CC1,inactive: 71%
23,O=C(CN1CCCCC1)N/N=C/c1ccc(/C=N/NC(=O)CN2CCCCC2)cc1,inactive: 98%

row,Structure (SMILES),survival
1,CCc1ccc(-c2nc3c(c(SCc4ccc(F)cc4)n2)Cc2c(CO)cnc(C)c2O3)cc1,inactive: 60%
2,COc1cc(-c2noc(-c3ccc(NCCc4ccccc4)c([N+](=O)[O-])c3)n2)cc(OC)c1OC,inactive: 66%
3,NC1=NN(c2cccc(C(=O)O)c2)C(=O)C1,inactive: 78%
4,COc1cc(NC(=O)CCNS(=O)(=O)c2ccc3c(c2)CCN3C(=O)C2CC2)cc(OC)c1,inactive: 87%
5,COCC(=O)N1CCc2cc(OC)c(OC)cc2C1COc1ccc2c(C)cc(=O)oc2c1 (stereo unspecified),inactive: 76%
6,Cc1ccc(C)c(N2CCN(C(=O)c3ccc4c(Cl)c5c(nc4c3)CCCC5)CC2)c1,inactive: 98%
7,COc1cccc(CNC(=O)c2c(O)nc3ccccn3c2=O)c1,active: 43%
8,COc1ccc(Cc2nnc(SCC(N)=O)o2)cc1,inactive: 76%
9,CCOc1ccc(N2CC(c3nc4ccccc4n3CC(C)C)CC2=O)cc1 (stereo unspecified),inactive: 56%
10,CCc1ccc(CN(Cc2ccco2)C(=O)c2cc(-c3ccc(Cl)cc3)on2)cc1,inactive: 75%
11,Cc1cc2c(cc1S(=O)(=O)Nc1cccc(C(F)(F)F)c1)OCCN2C,inactive: 86%
12,CCOc1ccc(-c2nonc2NC(=O)c2ccccc2C)cc1,inactive: 107%
13,COc1ccc2c(Sc3ccccc3)c(C(=O)NCCN(C)C)[nH]c2c1,inactive: 98%
14,CCN(CC)C(=O)c1sc2c(c1C)c(=O)n(-c1ccc(C)c(C)c1)c(=O)n2CC(=O)Nc1ccc(F)cc1,inactive: 92%
15,O=C(Cc1ccc(Cl)cc1)Nc1ccc2oc(-c3ccccc3)nc2c1,inactive: 67%
16,CC(C)Oc1ccc(CNC(=O)Cc2ccc(NC(=O)N3CCSc4ncccc43)cc2)cc1,inactive: 102%
17,Cc1ccc(Cl)cc1NC(=O)NC1COc2ccccc2C1 (stereo unspecified),inactive: 64%
18,CC(C)(C)C1CCc2c(sc(NC(=O)c3ccccc3F)c2C(=O)N2CCCCC2)C1 (stereo unspecified),active: -5%
19,CC(C)Cn1c(=O)c2sccc2n2c(CCCC(=O)Nc3ccc(Cl)cc3)nnc12,inactive: 81%
20,CS(=O)(=O)c1ncc(N(Cc2ccccc2)Cc2ccco2)c(C(=O)Nc2cccc(C(F)(F)F)c2)n1,inactive: 52%
21,Cc1cc(C)c(NC(=O)CSc2nc(=O)n(Cc3ccco3)c3c2CCC3)c(C)c1,inactive: 71%
22,O=C(NCCc1ccc(Cl)cc1)c1ccc2nc(Cc3ccccc3)oc2c1,inactive: 94%
23,Fc1ccc(-c2csc(-c3nc(-c4ccc(Br)s4)cs3)n2)cc1,inactive: 80%

row,Structure (SMILES),survival
1,Cc1cc(SCCN2CCOCC2)nc2ccccc12,inactive: 68%
2,Cc1cc2ncn(CCC(=O)Nc3ccccc3F)c2cc1C,inactive: 103%
3,CC1CCCCN1C(=O)CSc1nnc(-c2cccc(Cl)c2)o1 (stereo unspecified),inactive: 96%
4,CC(=O)N1CCCc2cc(S(=O)(=O)N(C)CC(=O)Nc3ccc(F)c(Cl)c3)ccc21,inactive: 99%
5,CCOc1ccc(NC(=O)CCCN2C(=O)C(c3ccccc3)Oc3cccnc32)cc1 (stereo unspecified),inactive: 83%
6,C1CCC2(CC1)C1=C(CCCC1)Nc1nnnn12,inactive: 91%
7,CCC(Cn1nnc2ccccc2c1=O)NC(=O)Nc1cc(Cl)ccc1OC (stereo unspecified),inactive: 71%
8,Cc1ccc(-n2ncc(C(=O)NCc3cccs3)c2C2CCN(C(=O)OC(C)(C)C)CC2)cc1C,inactive: 91%
9,CC(C)CN(CCNC(=O)c1cc(=O)[nH]c2ccc(S(=O)(=O)N3CCCCCC3)cc12)CC(C)C,inactive: 86%
10,Cn1c(=O)oc2cc(S(=O)(=O)NCCC(=O)Nc3ccc(F)c(Cl)c3)ccc21,inactive: 83%
11,Cc1ccc(C)c(OCCOCCn2c(-c3ccc(Br)cc3)nc3ccccc3c2=O)c1C,inactive: 61%
12,Cc1cccc(Cn2c(CNS(=O)(=O)c3ccc(Cl)s3)nc3cccnc32)c1,inactive: 103%
13,Cc1ccc2[nH]c(CSc3nnc(NC(=O)COc4ccccc4F)s3)cc(=O)c2c1,inactive: 67%
14,CCOc1ccc(-c2cc3c(=O)n(CC(=O)Nc4c(C)cccc4C)ccn3n2)cc1,inactive: 79%
15,OC(COc1ccc(Cl)cc1Cl)CN1CCCCC1 (stereo unspecified),inactive: 70%
16,CCOc1ccc(CCNC(=O)C2=C(C)C(=O)OC23CCC(C)CC3)cc1OCC (stereo unspecified),inactive: 78%
17,CCCCCn1c(=O)[nH]c2cc(C(=O)NCc3ccc(C)cc3)ccc2c1=O,inactive: 74%
18,O=C(CN(C(=O)c1cc2c(s1)CCC2)C1CCCC1)NCc1cccs1,inactive: 88%
19,COc1cccc(NC(=O)CSc2nc(-c3ccccc3)nc3c2Cc2cc(Cl)ccc2O3)c1,inactive: 100%
20,Cc1ccc(C(=O)c2oc3ccccc3c2NC(=O)c2nc(S(C)(=O)=O)ncc2Cl)cc1F,inactive: 65%
21,Cc1ccc(NC(=O)c2ccc3nc(Cc4ccccc4)oc3c2)cc1F,active: 25%
22,CCN(CC)c1ccc2cc(-c3nnc(-c4cccc(Cl)c4)o3)c(=O)oc2c1,inactive: 69%
